# From PubChem BioAssay AID1508642 (National Center for Advancing Translational Sciences (NCATS), 2021)
# In all, about 43,000 compounds went through this assay and about 200 (0.47%) were called active. Roughly 12% stayed inconclusive and do not appear here. Calls come from the whole dose curve; as a rule, active = well fitted cell-killing curve with a large enough effect; inconclusive = small, poorly fitted or top-dose-only effect, or effect the other way; inactive = flat fitted curve, though single readings scatter. The list shows a part of the results.
# Assay: Cell viability qHTS assay in S16 Pmp22-F2sN cells; note: nearly all actives have a fitted effect of over 65% in size
# Conditions: S16 Pmp22-F2sN Schwann cells (luciferase reporters placed in the Pmp22 gene) viability, CellTiter-Glo, 24 h; series mostly up to 57.5 µM; activity change, negative = cytotoxicity: at the top concentration
# Outline: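 Luminescence from CellTiter-Glo, read by CCD camera after a 15 min room-temperature incubation, served as the viability signal. Reporter Schwann cells (S16 Pmp22-F2sN) had been treated with pin-transferred compounds for 24 h at 37C.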
# % is set by controls: 0 for no effect and ±100 for the full control effect.
row,SMILES,"activity change, negative = cytotoxicity"
1,CCCCC(=O)Nc1cc(C)c(O)c(-c2nc3ncccc3o2)c1,inactive: 6.5%
2,CCCCN(C)CCNC(=O)c1c(C)oc2ncnc(N3CCOCC3)c12,inactive: 1.93%
3,Cc1cccc(NC(=O)Cn2c(=O)n(CCC(C)C)c(=O)c3cccnc32)c1,inactive: -13.4%
4,Cc1ccc(NC(=O)c2cnn(-c3ccc(C)c(C)c3)c2C2CCN(C(=O)OC(C)(C)C)CC2)c(C)c1,inactive: 3.73%
5,CC(NC(=O)c1ccc2c(c1)N(Cc1cccc(F)c1)C(=O)c1ccccc1S2)c1ccccc1 (stereo unspecified),inactive: 8.93%
6,Cc1ccc(-n2c(=O)c3c(c4cc(C)ccc4n3C)n(CC(=O)Nc3c(C)cccc3C)c2=O)cc1,inactive: 1.77%
7,O=C(CCSCCc1ccccn1)Nc1cc(F)ccc1F,inactive: 9.29%
8,Cc1ccc(-n2nc(C(=O)N3CCN(c4cccc(C(F)(F)F)c4)CC3)c(=O)n(C)c2=O)cc1,inactive: -24.3%
9,Cc1ccc(CNc2ccc(-c3nc(C(C)C)no3)cc2[N+](=O)[O-])cc1,inactive: 9.02%
10,COc1cc(NC(=O)CN2C(=O)C(c3ccc(C)cc3)=NC23CCCCC3)cc(OC)c1,inactive: -24.6%
11,Cc1cccc(N2CCN(C(=O)c3cc4c(=O)oc5ccccc5c4s3)CC2C)c1 (stereo unspecified),inactive: 3.98%
12,Cc1ccc(NS(=O)(=O)c2ccc3c(c2)NC(=O)C(C)C(=O)N3)cc1F (stereo unspecified),inactive: -1.68%
13,Cc1ccc(NC(=O)CSc2cc(=O)n(C)c3ccc(Cl)cc23)c(Br)c1,inactive: 1.12%
14,COc1ccc(CNS(=O)(=O)c2cc3c(cc2C)n(C)c(=O)c(=O)n3C)cc1,inactive: 9.93%
15,COc1cccc(NC(=O)c2nn(-c3ccc(C)cc3)c(=O)n(C)c2=O)c1,inactive: 2.97%
16,CC(C)CN(CC(C)C)C(=O)C1CCCN(S(=O)(=O)c2ccc3c(c2)oc(=O)n3C)C1 (stereo unspecified),inactive: -5.81%
17,Cc1cc(C)c2nc(N3CCCC(C(=O)NCc4cccc(Cl)c4)C3)sc2c1 (stereo unspecified),inactive: 10.4%
18,Cc1ccc(-c2nc3cc(NC(=O)c4cc5ccccc5o4)ccc3o2)cc1,inactive: 0.841%
19,Cc1ccc2c(CC(=O)Nc3cccc(Cl)c3C)coc2c1,inactive: -15.5%
20,Cn1c(=O)n(C/C=C/c2ccccc2)c(=O)c2c1nc1n2CCN1c1ccc(F)cc1,inactive: -0.581%
21,COc1ccc(S(=O)(=O)NCCc2sc(C)nc2C)cc1F,inactive: -13.1%
22,Cc1cccc(OCCCCn2c(C3CC(=O)N(c4ccccc4Cl)C3)nc3ccccc32)c1 (stereo unspecified),inactive: 20.7%
23,COc1ccc(C(=O)CC2(O)C(=O)Nc3c(C)cccc32)c(OC)c1OC (stereo unspecified),inactive: 1.2%
24,CCOc1ccc(-n2c(SCC(=O)Nc3cccc(Cl)c3)nc3c(oc4ccccc43)c2=O)cc1,inactive: 24.8%
25,CCOc1ccc(-c2cnc(NCc3ccc(C(F)(F)F)cc3)n2C)cc1,inactive: -11.9%
26,CN1CCN(c2ncc3c(n2)CCN(Cc2cc(Br)cs2)C3)CC1,inactive: -0.0301%
